B1: chr12:27755550:27755651:+|3pUTR|ENSG00000061794|msi1|total|mutant (ssRNA)
RNA: GGGAGUUCUACAGUCCGACGAUCAUACUAAUGCUUAAUGGCAAUGAUUACUCCAGAGUUUUUUAAUUUUUACACUGGGGCAACCGACCCGGAGGUCUCUGAUUUCUUCUUGGUCUAAAGUGUUUUGAUUUUAUUUCUACAUAACAACAGAGGAUUGAGCAUCA
B2: chr3:100749155:100750494:-|three_prime_utr|ENSG00000154175|control|control|control (ssRNA)
RNA: GGGAGUUCUACAGUCCGACGAUCUGCCGCAUUCAUUUAAAGCUAUUUUGUUUACUAUGUAUAAAAGUCUACAAUCUAAUUAAUAGCAAUACUAGAUGUUUAUUAUUAGAAAAGAUUGCUGAGAGUAUUUAUCAGGUUUUACAACAACAGAGGAUUGAGCAUCA
B3: ENSG00000107863:be:win_2301|CDS|ENSG00000107863|bound_else_gene|NA|bound_elsewhere_windowed (ssRNA)
RNA: GGGAGUUCUACAGUCCGACGAUCAGACACUACCUGCUGGCUGCCCAAUGAUGCACGUCGAGAGGUCCACAUAAAAAGAAUGGAGGAAAGAAAAGCCUCGAGUACCAGUCCGCCUGGCGAUUCUUUGGCUUCCAUCCCAUUUAUCAACAGAGGAUUGAGCAUCA
B4: chr20:53567570:53567671:-|3pUTR|ENSG00000171940|unk|total|mutant (ssRNA)
RNA: GGGAGUUCUACAGUCCGACGAUCUCACAAGCUGAGCCAUAUGUACAUAAUCCCGAUUUUGUUUUCACCGUUUUGCACUUUUACCGCCUAUUUUUGAAGAUUAACACAUUUGCAAGAUGAUUGACUCAAUCUUUGCCUAAUCCACAACAGAGGAUUGAGCAUCA
B5: chr5:32419879:32419980:-|CDS|ENSG00000056097|msi1|FALSE|unique (ssRNA)
RNA: GGGAGUUCUACAGUCCGACGAUCAGUUACUGCUGCCUAUGCACCAGCAGCCGCCACAGUUGCAGUUGCCAGGCCUGCUCCAGUAGCUGUUGCAGCUGCUGCAACAGCUGCUGCUUAUGGAGGCUACCCCACUGCACACACAGCCAACAGAGGAUUGAGCAUCA
B6: chr13:24435137:24435247:-|CDS|ENSG00000102699|unk|total|mutant (ssRNA)
RNA: GGGAGUUCUACAGUCCGACGAUCAAACCAACAGCAACUGAACCACUAUUUAAGAAAGUCAGUCCAUGGGAAACAUCUACUUCCCGCUUUUUUCCUAUUUUGGCUCCGGCCGUUGGUUCCUAUCUUCCCCCGACUGCCCGCGCUCAACAGAGGAUUGAGCAUCA
B7: ENSG00000070961:be:win_3551|CDS_3pUTR|ENSG00000070961|bound_else_gene|NA|bound_elsewhere_windowed (ssRNA)
RNA: GGGAGUUCUACAGUCCGACGAUCACAAAAAUAACAAUGCUGUUGACAGUGGAAUUCACCUUACAAUAGAAAUGAACAAGUCUGCUACCUCUUCAUCCCCAGGAAGCCCACUACAUAGUUUGGAAACAUCACUCUGAUUGUAAGCAACAGAGGAUUGAGCAUCA
B8: chr14:106088121:106088428:-|CDS|ENSG00000282639|control|control|control (ssRNA)
RNA: GGGAGUUCUACAGUCCGACGAUCGUCCGCCAGGCUCCAGGGAAGGGACUGGAAUAUGUUUCAGCUAUUAGUAGUAAUGGGGGUAGCACAUACUACGCAGACUCCGUGAAGGGCAGAUUCACCAUCUCCAGAGACAAUUCCAAGCAACAGAGGAUUGAGCAUCA
B9: chr19:48922626:48922741:+|3pUTR|ENSG00000104805|msi1|total|mutant (ssRNA)
RNA: GGGAGUUCUACAGUCCGACGAUCUCCUCCGAGGGGCUUGCCUUCUCUCGUGUCCAGUGAGGUGCUCAGUGAUCGGCUUAACUCCGAGAAGCCCGCCCCCUCCCCUUCUCCGUCUGUCCCAAGAGGGUCUGCUCUGAGCCUGCGCAACAGAGGAUUGAGCAUCA
B10: chr3:27418507:27418620:-|CDS|ENSG00000033867|unk|FALSE|bound_elsewhere (ssRNA)
RNA: GGGAGUUCUACAGUCCGACGAUCUGAUGUAGCUUAUAAAGCAAAAGACAGAAAUGACCUCUUAUCUGGAAUUGAUGAAUUUUUAGAUCAAGUAACUGUCCUACCUCCAGGAGAGUGGGAUCCUUCUAUACGCAUAGAACCACCCAACAGAGGAUUGAGCAUCA
B11: chr15:48879495:48879609:+|3pUTR|ENSG00000255302|msi1|total|mutant (ssRNA)
RNA: GGGAGUUCUACAGUCCGACGAUCGACACUAAAUGUGUGUGAAUGUACAAAGAAAACAAACCAUUGCUUAUGCUGUUAUAUACCCGAGAAAUUUUGUUUUGCUUGCUGUUUUAACUUGACAGAUGAAGGACUUCCGUUGAACUUCAACAGAGGAUUGAGCAUCA
B12: chr16:57471571:57471634:+|3pUTR|ENSG00000102978|msi1_unk|total|mutant (ssRNA)
RNA: GGGAGUUCUACAGUCCGACGAUCACCGCCUUUAUUCAGGGGGCCUAUAAACCCUUCCAGUUCUUGCCCCAGGGCUGGCCUGCCCGCGCUUCAAAUUCCCAGGUGUCCCUAAUUUGAGAAGUAACCUUUUGGAACCGCAUCCGACAACAGAGGAUUGAGCAUCA
B13: chrX:78656995:78658420:-|CDS|ENSG00000179300|control|control|control (ssRNA)
RNA: GGGAGUUCUACAGUCCGACGAUCCCUAUCUGAUCUCAUCACUCAGUGCAUCAGCCUGGAAGAGAAGCCUGAUCCCAAUCCAUUAGGGAAAAGUUCCUCUGCAGAGGGAGAUGGACCCGAGAGUCCACCAGCUGAAAACCAACCCAACAGAGGAUUGAGCAUCA
B14: chr16:70398910:70399011:-|5pUTR|ENSG00000157350|unk|FALSE|unique (ssRNA)
RNA: GGGAGUUCUACAGUCCGACGAUCCACUUGCAUGGAACCCAAGUCCCCUGAAGCCCCUGUGCUCUCUGUUGUGAUUGGAGUUCUAGGGCUUCCCCGCUGCCGGGAACGAGGGGCCGCCUCAUUGUCUGCUCAUGAACCACAAGGCAACAGAGGAUUGAGCAUCA
B15: chr10:74136666:74136778:-|CDS|ENSG00000185009|unk|total|mutant (ssRNA)
RNA: GGGAGUUCUACAGUCCGACGAUCUUCAGAGGCUGCAAUUAAGGAUAAUGUGGUCACCGUAUAUGAACUCUCCGAAGAAAUGUCCGACAAUGGAUUUCCACUGGCUACCGAAUCUAACAUUUUGAAAGAAUUGAUUAAACCACCCAACAGAGGAUUGAGCAUCA
B16: chr1:77728514:77728621:-|CDS|ENSG00000077254|unk|total|mutant (ssRNA)
RNA: GGGAGUUCUACAGUCCGACGAUCAGAUCCGCAAACCAUAACCACUGAGGAGACAAUGGAAGAAGACAAGAGCCAGUCGGAUGCCGAUUUUCAGUCUUGUGAAUCUUGCCGCAACAGUGACCGAGCAGAAAAUGAAAAUGGCUCCAACAGAGGAUUGAGCAUCA
B17: chrX:50586795:50596694:-|three_prime_utr|ENSG00000158352|control|control|control (ssRNA)
RNA: GGGAGUUCUACAGUCCGACGAUCAGCACUCUGCCACAGCAUCCCUGCCCAGCCAUGUGGGAAGUGCUUUCAAUCUUCUUUGUUAGCAGUUUCUCAGCAAGUAGAUAGCAAUUAGCAGUUUGUUCCAGCCCUCUACCCUGGAUGCAACAGAGGAUUGAGCAUCA
B18: chr19:13095865:13096029:+|3pUTR|ENSG00000008441|msi1|total|mutant (ssRNA)
RNA: GGGAGUUCUACAGUCCGACGAUCCCGCCCCCCACGUGGCCACUUUUCUCUGGAUUUCCGCUGUAAUGUCUUUACUCUUUAUUCCGGGGUGGGGCAUUCAUUGUUUGGGUCUUUUGCUGUUGGAAUGGGAACUCCUCCUCCAUUCAACAGAGGAUUGAGCAUCA
B19: chr5:76733371:76733472:+|CDS|ENSG00000181104|msi1|FALSE|unique (ssRNA)
RNA: GGGAGUUCUACAGUCCGACGAUCGAUCCCAGCAGUUAUAACAGCAGUGGGCAGUUGAUGGCAAGUAAAAUGGAUACCUGCUCUAGUAACCUGAAUAACAGCAUAUACAAAAAGCUGUUAACUUAGGAAAAGGGACUGCUGGGACAACAGAGGAUUGAGCAUCA
B20: chr17:77200548:77200649:+|CDS|ENSG00000129657|msi1|FALSE|bound_elsewhere (ssRNA)
RNA: GGGAGUUCUACAGUCCGACGAUCUAUUGACAAAGCCAGAGAGAUCAUGUGUCAGUCUUUGACGUGGAGAAAGCAGCAUCAGGUAGACUACAUUCUUGAAACCUGGACCCCUCCUCAGGUCCUUCAGGAUUACUACGCGGGAGGCAACAGAGGAUUGAGCAUCA
B21: ENSG00000136451:be:win_1951|3pUTR|ENSG00000136451|bound_else_gene|NA|bound_elsewhere_windowed (ssRNA)
RNA: GGGAGUUCUACAGUCCGACGAUCCAAGGUGGAUGGCUGAUUUUAACCUGAAAUUUUAAAUCCACAGAUUGAGAGCUAGUGUAGAAUUGUCUGUGUUUAUUGUUUUUAUGAGUAAAUACAUGCAUUGUCAUAAUAAAAUGCAUUCAACAGAGGAUUGAGCAUCA
B22: chrX:154027874:154027956:-|3pUTR|ENSG00000169057|msi1_unk|FALSE|overlapping (ssRNA)
RNA: GGGAGUUCUACAGUCCGACGAUCUGGUUAGAAGUGAGGGAGUUUGCCCCGUUCUGUUUGUAGAGUCUCAUAGUUGGACUUUCUAGCAUAUAUGUGUCCAUUUCCUUAUGCUGUAAAAGCAAGUCCUGCAACCAAACUCCCAUCCAACAGAGGAUUGAGCAUCA

Some of the results follow.

For this experiment, the target named is T1, UNK ZnF1-6 (called full-length) (human, UniProt Q9C0B0 30-357).
T1 sequence: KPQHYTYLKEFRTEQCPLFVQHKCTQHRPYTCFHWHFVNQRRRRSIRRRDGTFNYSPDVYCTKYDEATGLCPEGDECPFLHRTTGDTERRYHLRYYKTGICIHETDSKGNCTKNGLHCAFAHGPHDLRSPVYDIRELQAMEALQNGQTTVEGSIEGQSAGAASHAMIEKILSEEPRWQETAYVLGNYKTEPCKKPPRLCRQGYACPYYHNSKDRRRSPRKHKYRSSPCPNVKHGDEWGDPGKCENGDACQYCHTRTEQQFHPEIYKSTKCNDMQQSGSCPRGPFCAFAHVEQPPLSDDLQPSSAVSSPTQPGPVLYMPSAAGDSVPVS
Briefly: nsRBNS (natural sequence RNA bind-n-seq); RBNS binding buffer (assumed for nsRBNS): 25 mM Tris pH 7.5, 150 mM KCl, 3 mM MgCl2, 0.01% Triton X-100, 500 ug/ml BSA, 20 U/ml SUPERase-In, 4 C; UNK is unkempt and MSI1 is Musashi-1; names of the RNAs are library labels; protein concentration not given here; high values mean tight binding.
For B1, the binding signal was 0.678 enrichment R.

Consider B2, for which the binding signal stood at 1 enrichment R.

Take B3: the binding signal amounted to 0.603 enrichment R.

In turn, B4 returned a binding signal of 0.457 enrichment R.

As for B5, the binding signal worked out at 0.467 enrichment R.

B6 gave a binding signal of 0.485 enrichment R.

In turn, B7 gave a binding signal of 0.621 enrichment R.

In the case of B8, the binding signal was 1.13 enrichment R.

Turning to B9, the binding signal was found to be 1.06 enrichment R.

Consider B10, for which the binding signal came to 0.413 enrichment R.

For B11, the binding signal stood at 0.453 enrichment R.

Molecule B12 displayed a binding signal of 0.71 enrichment R.

B13 yielded a binding signal of 0.532 enrichment R.

B14 displayed a binding signal of 0.679 enrichment R.

Consider B15, for which the binding signal came out at 0.434 enrichment R.

As to B16, the binding signal stood at 0.458 enrichment R.

For B17, the binding signal turned out to be 1.24 enrichment R.

B18 gave a binding signal of 0.901 enrichment R.

With B19, the binding signal came out at 0.621 enrichment R.

In turn, B20 came in with a binding signal of 0.592 enrichment R.

As to B21, the binding signal came out at 0.482 enrichment R.

Turning to B22, the binding signal is 0.635 enrichment R.
